Reference: PubChem BioAssay AID1346428 (National Center for Advancing Translational Sciences (NCATS), 2018)
Values joined by “and” are separate entries in the source; they are usually repeats but may differ in a detail not shown here. Equal entries are not always repeated. Hit rate of the full screen: of about 48,000 compounds, about 1,200 (2.5%) were called active. Roughly 2% stayed inconclusive and do not appear here.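 Rule for the calls: active = activation of at least 60% and not above a set upper limit (about 1 call in 100 departs from these limits); inconclusive = activation of 40% to 60%, or above that upper limit; inactive = activation under 40%.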 The list shows a part of the results.

biological target: Probable G-protein coupled receptor 32 (Homo sapiens) (UniProt O75388); test: qHTS for Agonists of Human Resolvin D1 Receptor DRV1; settings: CHO-K1 GPR32 beta-arrestin PathHunter luminescence, 90 min; at 76.9 µM; active compounds read high; zero percent set by DMSO-only wells; note: 0% is about no effect
In short: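 Beta-arrestin recruitment read-out: luminescence from complemented beta-Gal in CHO-K1 GPR32 PathHunter cells, measured 1 h after detection reagent at ambient temperature following 90 min compound exposure at 37 °C; DMSO served as basal (EC0) control.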

Sequence of UniProt O75388 (O75388 whole entry, looked up): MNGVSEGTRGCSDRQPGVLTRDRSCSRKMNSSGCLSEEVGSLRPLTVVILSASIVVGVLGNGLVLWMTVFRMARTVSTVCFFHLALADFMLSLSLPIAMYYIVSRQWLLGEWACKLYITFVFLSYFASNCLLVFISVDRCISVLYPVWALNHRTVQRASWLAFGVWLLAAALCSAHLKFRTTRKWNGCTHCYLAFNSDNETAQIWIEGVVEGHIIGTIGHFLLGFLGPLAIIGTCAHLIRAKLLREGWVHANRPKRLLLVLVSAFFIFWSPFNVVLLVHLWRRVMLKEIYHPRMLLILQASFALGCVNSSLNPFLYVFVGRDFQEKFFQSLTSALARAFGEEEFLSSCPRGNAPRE

activation, active:
CC(=O)Nc1c(C(=O)Nc2cccc(C)c2)nnn1-c1ccc(C)cc1 119%
CCOc1cc(C(=O)Nc2ccc(NC(=O)c3cc4ccccc4o3)c(OC)c2)cc(OCC)c1OCC 105%

activation, inactive:
CCOc1ccccc1NC(=O)COc1cccc2c(=O)n(CCOC)ccc12 -2.18%
COc1ccc(NC(=O)CC2C(=O)N(c3ccccc3)C(=O)N2Cc2cccnc2)cc1 (stereo not drawn) -4.03%
Cc1ccc(NC(=O)Nc2cc3c(cc2N2CCCCC2)n(C)c(=O)n3C)cc1Cl -2.89%
CCOC(=O)c1ccc(NC(=O)c2c(C)oc3nc(C)nc(N4CCCC4)c23)cc1 -11%
CCC1CCCCN1S(=O)(=O)c1ccc(N2CCCCS2(=O)=O)cc1 (stereo not drawn) -16.5%
COc1ccc(-c2[nH]ncc2C(=O)NCc2cccc(F)c2)cc1 -8.69%
COc1ccc(C2=NN(C(C)=O)C(c3cn(-c4ccccc4)nc3-c3cccs3)C2)cc1 (stereo not drawn) -5.3%
COc1cccc(-n2c(=O)c3c4c(sc3n(Cc3ccc(F)cc3Cl)c2=O)CCCC4)c1 -14.3%
O=C(CCCc1nc(-c2ccco2)no1)Nc1ccccc1[N+](=O)[O-] -14.8%
COCCNC(=O)c1ccc2nc(CCc3ccccc3)oc2c1 -3.89%
CCc1ccc(NC(=O)CC(c2ccc(C)cc2)N2Cc3ccccc3C2=O)cc1 (stereo not drawn) -14.8%
Cc1ccc(-n2nc(-c3ccc(F)cc3)c3cnc4cc5c(cc4c32)OCO5)cc1C -2.64%
COc1ccc(NC(=O)c2oc3ccc(S(=O)(=O)N(C)C4CCCCC4)cc3c2C)cc1Cl 2.21%
CCc1ccc(-c2cc(C)no2)cc1S(=O)(=O)N1CCN(c2cccc(Cl)c2)CC1 -13.3%
Cc1c(C(=O)Nc2ccc(Br)cc2F)oc2ccc(S(=O)(=O)N3CCC4(CC3)OCCO4)cc12 -3.3%
Cc1ccc(Cl)cc1N1CCN(C(=O)CCSCc2ccccc2F)CC1 -30.8%
O=C(c1ccco1)c1cn(CCOc2ccc(Cl)cc2)c2ccccc12 14.9%
Cc1ccc(-c2noc(CSc3nnc(-c4ccc(Cl)cc4)n3C)n2)cc1 -26.4%
Cc1cccc(C(=O)NCC(c2ccc3c(c2)OCO3)N2CCOCC2)c1 (stereo not drawn) -8.22%
CC(=O)c1ccc(NC(=O)Cn2c3ncccc3c(=O)n2-c2ccc(C)cc2)cc1 -2.07%
COc1ccc(NC(=O)c2cnc(SCC(=O)Nc3nc4ccc(C)cc4s3)n(C)c2=O)cc1 -4.45%
CCc1cccc2c3c([nH]c12)C(CC)(CC(=O)O)OCC3 (stereo not drawn) -1.13% and 4.46%
CCc1ccc(C2C(C(=O)Nc3ccccc3)=C(C)Nc3nc(SCC(=O)c4ccc(C)cc4)nn32)cc1 (stereo not drawn) -7.18%
COc1ccc(C(CNC(=O)c2ccc(C)cc2)N2CCOCC2)cc1 (stereo not drawn) -21.6%
O=C(c1cccs1)N1CCCc2cc(NS(=O)(=O)c3ccc(Cl)cc3)ccc21 -15.2%
Cc1noc(NS(=O)(=O)c2ccc(N)cc2)c1C -2%
O=C(CSc1nccn1Cc1ccccc1)NC1CCCC1 8.18%
COc1ccccc1-c1cc(C(F)(F)F)nc(S(=O)(=O)CCCC(=O)Nc2cc(Br)ccc2O)n1 17.1%
CCC(=O)N1CCc2cc(CNC(=O)Nc3ccc(OC)cc3OC)ccc21 -2.05%
O=C(NCCc1ccccc1)C(=O)NCC(c1cccnc1)N1CCN(c2ccc(F)cc2)CC1 (stereo not drawn) 8.37%
CCN(C(=O)CN(C)S(=O)(=O)c1ccc2c(c1)n(C)c(=O)c(=O)n2C)c1cccc(C)c1 -10.1%
COc1ccc(NC(=O)C2CCN(S(=O)(=O)c3c(C)noc3/C=C/c3ccco3)CC2)cc1 -27.5%
CCCCC(=O)O[C@]1(C(=O)CO)CC[C@H]2[C@@H]3CCC4=CC(=O)CC[C@]4(C)[C@H]3[C@@H](O)C[C@@]21C 4.88%
CN(C)c1ccc(C(CNS(=O)(=O)c2cc(F)ccc2F)N2CCOCC2)cc1 (stereo not drawn) -21.2%
O=C(CSCc1ccc(F)cc1)N1CCN(c2ccccc2)CC1 -12.9%
Cc1cc(C)c(Cn2c(=O)n(CCCCCC(=O)NCc3ccc4c(c3)OCO4)c(=O)c3sccc32)c(C)c1 -9.41%
CCN(CC)C(=O)c1sc(NC(=O)C2c3ccccc3Oc3ccccc32)c(C(=O)OC(C)C)c1C 5.64%
COc1ccc(NS(=O)(=O)c2ccc3[nH]c4c(c3c2)CCCC4)c(OC)c1 14.7%
CCOc1ccc(Nc2nc3ccccc3c3nnc(CC)n23)cc1 -6.68%
COc1cccc(NC(=O)Cn2c(=O)n(-c3cccc(OC)c3)c(=O)c3c4c(sc32)CCCC4)c1 -5.11%
CCCCCOc1ccc(C2SC(=O)NC2=O)cc1OCC (stereo not drawn) -4.04%
CCN(C(=O)CCNC(=O)Cn1cnc2ccccc2c1=O)c1cc(OC)ccc1OC -4.2%
COc1ccc(NC(=O)CSC2=Nc3ccccc3N=C(c3ccc(F)cc3)C2)cc1OC -15.9%
Cc1ccc2c(c1)c1c(c(=O)n(-c3ccccc3C)c(=O)n1CC(=O)c1ccc(Cl)cc1)n2C -0.89%
CN(C)c1ccc(NC(=O)Cn2nnc3sc4c(c3c2=O)CCC(C(C)(C)C)C4)cc1 (stereo not drawn) -3.71%
O=S(=O)(c1ccc(Cl)cc1)c1nnn2c1nc(NC1CCCCC1)c1sccc12 -21.1%
CCC1CN(C(=O)N2CCC(C(=O)NCc3cc(OC)c(OC)c(OC)c3)CC2)c2ccccc2O1 (stereo not drawn) -11.7%
CN(C)c1ccc(CNC(=O)CN2C(=O)CSc3ccc(S(=O)(=O)N4CCCC4)cc32)cc1 -23.5%
CCSc1ncc(Cl)c(C(=O)Nc2nc3ccc(Cl)cc3s2)n1 -15.4%
O=C(Nc1ccc(O)c(-c2nc3ccccc3o2)c1)c1ccc(Br)cc1 14.6%
CN(C)c1cccc(C(=O)Nc2nc3ccc(S(=O)(=O)N4CCCC4)cc3s2)c1 -11.9%
Cc1cccc(NC(=O)c2oc3ccccc3c2NC(=O)c2cc(=O)c3ccc(C)cc3o2)c1 -11.8%
Cc1cc(NC(=O)CCc2nc3cccnc3n2Cc2cccs2)ccc1Br -1.11%
Cc1ccc(-n2c(=O)c3c(cnn3C)n(Cc3ccc(Cl)cc3)c2=O)cc1 -28.4%
Cc1nc2ccc(CN(C)c3ccc(C(=O)N[C@@H](CCC(=O)O)C(=O)O)s3)cc2c(=O)[nH]1 -0.694%
CCc1ccc(NC(=O)N(Cc2c[nH]c3ccccc23)C2CCCCC2)cc1 -2.93%
Cc1ccc(NS(=O)(=O)c2cc(-c3cc(C)no3)ccc2C)c(Cl)c1 -1.22%
CCc1ccccc1NC(=O)CSc1nnc(-c2ccc(OC)cc2)s1 -1.8%
CC(=O)Nc1ccc(NC(=O)C2CCN(S(=O)(=O)c3ccc4c(c3)CCCC(=O)N4)CC2)cc1 21.6%
Cc1ccc(NC(=O)Nc2c[nH]c(=O)[nH]c2=O)c(Cl)c1 -27.2%
CCOc1ccc2nc(N3CCCC(C(=O)Nc4cc(C)ccc4C)C3)sc2c1 (stereo not drawn) 10.2%
CCc1nn(CC(=O)NCCc2ccc(Cl)cc2)c(=O)c2cc3ccccc3n12 -5.94%
Cc1cc(N2CCN(c3ccc(F)cc3)CC2)n2nc(-c3ccc(Cl)cc3)nc2n1 -1.5%
CCOC(=O)c1[nH]c(C)c(CCC(=O)Nc2ccccc2C(=O)OC)c1C -17.5%
Cc1oc2ncn(C)c(=O)c2c1C(=O)Nc1ccc(F)cc1 7.7%
Cc1cc(OCC(=O)NC(Cc2c[nH]c3ccccc23)C(=O)O)ccc1Cl (stereo not drawn) -11.3%
Cc1cccc(N2CCN(C(=O)c3oc(=O)c4ccccc4c3-c3ccccc3)CC2C)c1 (stereo not drawn) 7.12%
CCOc1ccc2nc(N(Cc3cccnc3)C(=O)C3CCCCC3)sc2c1 -9.67%
NC[C@@H]1O[C@H](c2ccccc2)Cc2c1ccc(O)c2O 0.207%
Cc1ccc(C2CCN(C(=O)Nc3ccc(Cl)c(Cl)c3)C2)cc1 (stereo not drawn) 32.7%
Cc1ccc(-c2nnc(Nc3ccccc3)c3ccccc23)cc1S(=O)(=O)N1CCOCC1 19.5%
Cc1ccc(CNC(=O)c2ccc3c(c2)N(Cc2ccccc2Cl)C(=O)CS3)cc1 20.9%
COc1ccc(Cn2c(CCC(=O)Nc3ccc(C)cc3C)nc3cccnc32)cc1 -8.9%
CC(C)OCCCNC(=O)c1ccc(Cn2c(=O)c3cccn3c3cccnc32)cc1 -9.3%
COc1cccc(CNC(=O)c2cccc(-n3c(C)nc4cccnc43)c2C)c1 2.84%
Cc1cccc(CSc2nc(=O)c3c(n2C)NC(=O)CC3c2cc(F)cc(F)c2)c1 (stereo not drawn) -16.1%
Cc1oc2ccc(O)c(CN3CCN(C)CC3)c2c1C(=O)Nc1ccccc1 9.75%
O=C1CC2(CCCC2)CC(=O)N1CCNCC1COc2ccccc2O1 (stereo not drawn) 3.1%
Cc1ccsc1CN(C(=O)COc1ccc(Cl)cc1)C1CCS(=O)(=O)C1 (stereo not drawn) -24%
O=C(CCn1c(=O)c2sccc2n(CC(=O)Nc2ccccc2)c1=O)NCc1ccccc1Cl 4.76%
CCOc1cccc2cc(-c3cn4c(n3)sc3ccccc34)c(=O)oc12 -2.93%
